Results: PubChem BioAssay (NCI)
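48-hour exposure; five concentrations; linearly interpolated endpoints. Here, GI50 denotes the concentration required for 50% inhibition of growth.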 The source holds more than one record for some entries. This is not the full list of results. The source may hold further records. For some of these results: A record mostly stands for its own series of concentrations, not given here; some values may only mark the edge of a range. Brackets tell where a record comes from. Letters hold for one entry only. For some of these results: The records of an entry repeat one measurement in other runs, samples, wells, individuals or studies.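 TGI denotes the concentration required for complete inhibition of growth.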

How the values were obtained:
Experiment in all cases: NCI-60 cell line screen, 48 h
[1] = system: MOLT-4 leukemia
[2] = system: SNB-75 CNS
[3] = system: HCC-2998 colon
[4] = system: U251 CNS
[5] = system: SK-MEL-5 melanoma
[6] = system: MDA-MB-231 breast
[7] = system: HCT-116 colon
[8] = system: SNB-19 CNS
[9] = system: TK-10 renal
[10] = system: SR leukemia
[11] = system: KM12 colon
[12] = system: OVCAR-8 ovarian
[13] = system: DU-145 prostate
[14] = system: HOP-62 NSCLC
[15] = system: T-47D breast
[16] = system: IGROV1 ovarian
[17] = system: NCI-H460 lung
[18] = system: SN12C renal
[19] = system: 786-0 renal
[20] = system: SK-OV-3 ovarian
[21] = system: A498 renal
[22] = system: UO-31 renal
[23] = system: NCI-H522 lung
[24] = system: SK-MEL-28 melanoma
[25] = system: RXF 393 renal
[26] = system: HCT-15 colon
[27] = system: A549 NSCLC
[28] = system: SF-295 CNS
[29] = system: ACHN renal
[30] = system: CAKI-1 renal
[31] = system: OVCAR-5 ovarian
[32] = system: HOP-92 NSCLC
[33] = system: RPMI-8226 leukemia
[34] = system: UACC-257 melanoma
[35] = system: M14 melanoma
[36] = system: HT29 colon
[37] = system: NCI-H23 lung
[38] = system: COLO 205 colon
[39] = system: OVCAR-4 ovarian
[40] = system: OVCAR-3 ovarian
[41] = system: MALME-3M melanoma
[42] = system: UACC-62 melanoma
[43] = system: NCI/ADR-RES ovarian
[44] = system: SF-539 CNS
[45] = system: MCF7 breast
[46] = system: MDA-MB-435
[47] = system: SK-MEL-2 melanoma
[48] = system: LOX IMVI melanoma
[49] = system: EKVX NSCLC

SMILES: CN1CCN(c2ccc([N+](=O)[O-])c3no[n+]([O-])c23)CC1
- TGI [1]: 16.1 nM [sample A, 1 test] and 356 nM [sample B, mean of 2 tests]
- TGI [2]: 70.5 nM [sample A] and 1.35 µM [sample B]

SMILES: CC(C)[C@H](O)C(=O)N[C@H]1Cc2ccc3c(c2)[C@]24C5=C(N=C(O5)[C@H](C(C)C)NC1=O)c1nc(Cl)c(o1)-c1c(Cl)[nH]c5cccc(c15)-c1cccc2c1N[C@H]4O3
- TGI [3]: 55.7 nM and 1.62 µM
- TGI [4]: 22.9 nM and > 10 µM
- TGI [5]: 82.7 nM and 1.68 nM
- TGI [6]: 47.6 nM and > 10 µM
- TGI [7]: 18.6 nM and > 10 µM
- TGI [8]: 91.7 nM and > 10 µM

SMILES: CO[C@@]12[C@H](COC(N)=O)C3=C(C(=O)C(C)=C(N)C3=O)N1C[C@@H]1N[C@@H]12
- TGI [9]: 19.9 µM, 812 nM, 28.1 µM
- TGI [10]: 6.34 µM and > 100 µM
- TGI [11]: 9.51 µM, 10.9 µM, > 100 µM
- TGI [12]: 9.21 µM, 11.7 µM, > 100 µM
- TGI [13]: 7.19 µM, 757 nM, 15.5 µM
- TGI [14]: 1.77 µM, 9.88 µM, 69.3 µM
- TGI [1]: 9.27 µM, 2.65 µM, > 100 µM
- TGI [15]: > 100 µM [1 test] and 2.89 µM [mean of 2 tests] and 21 µM [mean of 29 tests]

SMILES: CCCCc1oc2ccccc2c1C(=O)c1cc(I)c(OCCN(CC)CC)c(I)c1
- TGI [16]: 250 µM [sample A] and 19.9 µM [sample B]

SMILES: O=c1[nH]cc(F)c(=O)[nH]1
- GI50 [17]: 4.88 µM [sample A, 1 test] and 104 nM [sample A, mean of 5 tests] and 577 nM [sample B, 1 test]
- TGI [17]: 60.5 µM, 477 µM, 312 µM [sample A] and > 100 µM [sample B]
- TGI [18]: > 34.4 µM, 2.18 mM, > 2.5 mM [sample A] and > 100 µM [sample B]
- GI50 [9]: 14.9 µM [sample A, 1 test] and 2.77 µM [sample A, mean of 5 tests] and > 100 µM [sample B, 1 test]
- TGI [9]: 79.3 µM, 1.93 mM, > 2.5 mM [sample A] and > 100 µM [sample B]
- GI50 [3]: 4.88 µM [sample A, mean of 3 tests] and 121 nM [sample A, mean of 4 tests] and 289 nM [sample B, 1 test]
- TGI [3]: 50.7 µM, 1.21 mM, 2.44 mM [sample A] and > 100 µM [sample B]
- TGI [19]: 63 µM, 1.68 mM, > 2.5 mM [sample A] and > 100 µM [sample B]
- TGI [4]: > 77.4 µM, 2.36 mM, > 2.5 mM [sample A] and > 100 µM [sample B]
- TGI [20]: > 73.8 µM, 2.24 mM, > 2.5 mM [sample A] and > 100 µM [sample B]
- TGI [21]: 691 µM, 9.23 µM [sample A] and > 100 µM [sample B]
- TGI [22]: 49 µM, 656 µM, 351 µM [sample A] and > 100 µM [sample B]
- TGI [23]: > 74.6 µM, 1.4 mM, 2.17 mM [sample A] and > 100 µM [sample B]
- TGI [5]: 45.5 µM, 665 µM, 542 µM [sample A] and > 100 µM [sample B]
- TGI [24]: 72.2 µM, 2.26 mM [sample A] and > 100 µM [sample B]
- TGI [25]: 37.3 µM, 817 µM, 688 µM [sample A] and > 100 µM [sample B]
- GI50 [26]: 235 nM, 5.77 µM, 8.53 µM [sample A] and 4.1 µM [sample B]
- TGI [26]: 57.3 µM, 2.1 mM, > 1.58 mM [sample A] and > 100 µM [sample B]
- GI50 [27]: 4.88 µM [sample A, mean of 3 tests] and 356 nM [sample A, mean of 5 tests] and 1.69 µM [sample B, 1 test]
- TGI [27]: > 75 µM, 1.88 mM, 924 µM [sample A] and > 100 µM [sample B]
- GI50 [6]: 1.2 mM [sample A, mean of 3 tests] and 13 µM [sample A, mean of 4 tests] and > 100 µM [sample B, 1 test]
- TGI [6]: > 51 µM, 2.35 mM, > 2.5 mM [sample A] and > 100 µM [sample B]
- TGI [28]: 9.27 µM, 2.24 mM, > 2.5 mM [sample A] and > 100 µM [sample B]
- TGI [7]: 8.9 µM, 341 µM, 182 µM [sample A] and > 100 µM [sample B]
- TGI [29]: 42.8 µM, 1.7 mM [sample A] and > 100 µM [sample B]
- TGI [11]: 45 µM, 1.88 mM, > 2.5 mM [sample A] and > 100 µM [sample B]
- GI50 [30]: 5.91 µM [sample A, mean of 3 tests] and 233 nM [sample A, mean of 4 tests] and 2.69 µM [sample B, 1 test]
- TGI [30]: 5.32 µM, 1.04 mM, > 2.5 mM [sample A] and > 100 µM [sample B]
- TGI [31]: 58.8 µM, 1.86 mM, 1.27 mM [sample A] and > 100 µM [sample B]
- GI50 [32]: 8.9 µM [sample A, 1 test] and > 82.9 µM [sample A, mean of 4 tests] and > 100 µM [sample B, 1 test]
- GI50 [33]: 9.01 µM [mean of 3 tests] and 129 nM [mean of 4 tests]
- TGI [33]: 55.9 µM, 1.38 mM, > 1.52 mM
- TGI [12]: > 43.6 µM, 2.37 mM, > 2.5 mM [sample A] and > 100 µM [sample B]
- TGI [34]: > 86.6 µM, 2.08 mM, > 2.5 mM [sample A] and > 100 µM [sample B]
- TGI [35]: > 94.2 µM, 2.36 mM, > 2.5 mM [sample A] and > 100 µM [sample B]
- GI50 [36]: 338 nM, 6.72 µM, 9.82 µM [sample A] and 3.69 µM [sample B]
- TGI [36]: 67.7 µM, 2.25 mM, > 2.5 mM [sample A] and > 100 µM [sample B]
- TGI [37]: 52.2 µM, 2.11 mM, > 2.11 mM [sample A] and > 100 µM [sample B]
- GI50 [38]: 305 nM, 6.83 µM, 8.28 µM [sample A] and 2.01 µM [sample B]
- TGI [38]: > 66.5 µM, 1.11 mM, > 2.5 mM [sample A] and > 100 µM [sample B]
- TGI [39]: > 81.5 µM, 1.79 mM, > 1.86 mM [sample A] and > 100 µM [sample B]
- TGI [14]: > 92.1 µM, 1.89 mM, > 2.41 mM [sample A] and > 100 µM [sample B]
- GI50 [40]: 60.7 µM [sample A, mean of 3 tests] and 55.3 nM [sample A, mean of 5 tests] and 3.54 µM [sample B, 1 test]
- TGI [40]: 967 nM, 1.08 mM, 999 µM [sample A] and > 100 µM [sample B]
- GI50 [41]: 151 µM [sample A, 1 test] and 298 nM [sample A, mean of 3 tests] and 6.23 µM [sample B, 1 test]
- TGI [41]: > 8.44 µM, 1.79 mM, > 2.5 mM [sample A] and > 100 µM [sample B]
- TGI [8]: > 82 µM, 2.34 mM, > 2.5 mM [sample A] and > 100 µM [sample B]
- TGI [42]: 48.7 µM, 1.12 mM, 788 µM [sample A] and > 100 µM [sample B]
- TGI [43]: 19.2 µM, 2.32 mM, > 2.5 mM [sample A] and > 100 µM [sample B]
- GI50 [44]: 4.88 µM [sample A, mean of 3 tests] and 122 nM [sample A, mean of 5 tests] and 630 nM [sample B, 1 test]
- TGI [44]: > 87.1 µM, 379 µM, 60.5 µM [sample A] and > 100 µM [sample B]
- GI50 [45]: 5.38 µM [sample A, mean of 3 tests] and 203 nM [sample A, mean of 4 tests] and 2.9 µM [sample B, 1 test]
- TGI [45]: 53.8 µM, 1.51 mM, 2.45 mM [sample A] and > 100 µM [sample B]
- GI50 [46]: 175 nM [sample A, mean of 5 tests] and 2.26 µM [sample B, 1 test]
- TGI [46]: > 79.6 µM, 2.37 mM, > 2.5 mM [sample A] and > 100 µM [sample B]
- TGI [1]: > 60.6 µM, 1.23 mM, 370 µM [sample A] and > 100 µM [sample B]
- GI50 [47]: > 952 µM [sample A, mean of 2 tests] and > 65.3 µM [sample A, mean of 4 tests] and 26.6 µM [sample B, 1 test]
- TGI [48]: > 56.5 µM, 970 µM, 969 µM [sample A] and > 100 µM [sample B]
- TGI [15]: > 54.8 µM, 2.04 mM, > 2.5 mM [sample A] and > 100 µM [sample B]
- GI50 [49]: 1.6 mM [sample A, mean of 3 tests] and 47.3 µM [sample A, mean of 5 tests] and > 100 µM [sample B, 1 test]
- TGI [16]: > 49.5 µM, 1.19 mM, 707 µM [sample A] and > 100 µM [sample B]

SMILES: COc1ccc(-c2c(C(C)=O)c(-c3ccccc3)n(C3OC(COC(C)=O)C(OC(C)=O)C(OC(C)=O)C3OC(C)=O)c(=S)c2C#N)cc1O (centres undefined)
- GI50 [10]: 152 nM [sample A, 1 test] and 85.5 µM [sample B, 1 test]
